# Data taken from the supplement of paper PMC12217912.
# This is one part of the list. The full chains were built here from the parent and the listed change. Inactive controls read about 0.05.
# B1: TEV protease; numbered along this chain (parent)
# chain: MGESLFKGPRDYNPISSSICHLTNESDGHTTSLYGIGFGPFIITNKHLFRRNNGTLVVQSLHGVFKVKDTTTLQQHLVDGRDMIIIRMPKDFPPFPQKLKFREPQREERICLVTTNFQTKSMSSMVSDTSCTFPSGDGIFWKHWIQTKDGQCGSPLVSTRDGFIVGIHSASNFTNTNNYFTSVPKNFMELLTNQEAQQWVSGWRLNADSVLWGGHKVFMVKPEEPFQPVKEATQL
# Variants of: B1
# Test: raw area under fraction-flipped curve 0-4 h after induction (AUC4h, not background-subtracted), DNA-recorder readout of cleavage of the substrate (dimensionless); higher = more cleavage of the substrate by the protease variant
# Conditions: temperature: 34 °C; time window: 0-4 h after rhamnose induction
# Experimental: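 In vivo DNA recorder in E. coli TOP10(DE3) ΔrhaA at 34 °C. Each TEVp single-site mutant (parent TEVp 0) is paired with a single-site variant of the 7-mer TEVs (canonical ENLYFQ|S). The substrate sits between flexible linkers in a Bxb1-sfGFP-TEVs-SsrA fusion, so cleavage stabilises Bxb1 and speeds flipping of a recombination array, read by NGS. The value is the raw area under the fraction-flipped curve over 0-4 h after rhamnose induction (AUC4h), with ≥20 reads per time point. It is not background-subtracted; inactive controls average about 0.047.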
# 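Note: Bxb1 expression induced with 0.2% (w/v) L-rhamnose at OD600 near 0.5, cultures sampled hourly, flipped fraction per protease–substrate barcode pair counted by paired-end Illumina sequencing.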
variant,measurement,value
S135W,area with substrate EALYFQS,0.0602
same,area with substrate EDLYFQS,0.0644
same,area with substrate EELYFQS,0.0744
same,area with substrate EFLYFQS,0.0563
same,area with substrate EGLYFQS,0.0473
same,area with substrate EHLYFQS,0.0641
same,area with substrate EKLYFQS,0.0506
same,area with substrate ELLYFQS,0.0571
same,area with substrate EPLYFQS,0.0669
same,area with substrate EQLYFQS,0.0736
same,area with substrate ESLYFQS,0.056
same,area with substrate ETLYFQS,0.0522
same,area with substrate EVLYFQS,0.0642
same,area with substrate EWLYFQS,0.0484
R106M,area with substrate EALYFQS,0.125
same,area with substrate EGLYFQS,0.113
same,area with substrate EHLYFQS,0.11
same,area with substrate EILYFQS,0.121
same,area with substrate ELLYFQS,0.194
same,area with substrate EMLYFQS,0.101
same,area with substrate EPLYFQS,0.171
same,area with substrate EQLYFQS,0.107
same,area with substrate ESLYFQS,0.105
same,area with substrate EVLYFQS,0.0421
same,area with substrate EWLYFQS,0.0866
same,area with substrate EYLYFQS,0.105
R106V,area with substrate EALYFQS,0.131
same,area with substrate EELYFQS,0.14
same,area with substrate EILYFQS,0.103
same,area with substrate EQLYFQS,0.085
same,area with substrate ERLYFQS,0.106
same,area with substrate ESLYFQS,0.102
same,area with substrate ETLYFQS,0.124
I84R,area with substrate EALYFQS,0.0627
same,area with substrate ECLYFQS,0.0654
same,area with substrate EFLYFQS,0.0542
same,area with substrate EGLYFQS,0.0576
same,area with substrate EILYFQS,0.0611
same,area with substrate EKLYFQS,0.0588
same,area with substrate ELLYFQS,0.0569
same,area with substrate EMLYFQS,0.0553
same,area with substrate EPLYFQS,0.0324
same,area with substrate EQLYFQS,0.0366
same,area with substrate ESLYFQS,0.0606
same,area with substrate ETLYFQS,0.146
same,area with substrate EVLYFQS,0.0438
I84D,area with substrate EALYFQS,0.0523
same,area with substrate EDLYFQS,0.0717
same,area with substrate EELYFQS,0.0506
same,area with substrate EFLYFQS,0.0525
same,area with substrate EHLYFQS,0.0263
same,area with substrate EILYFQS,0.0555
same,area with substrate ELLYFQS,0.0432
same,area with substrate EMLYFQS,0.0642
same,area with substrate EPLYFQS,0.0397
same,area with substrate EQLYFQS,0.0444
same,area with substrate ERLYFQS,0.0357
same,area with substrate ESLYFQS,0.0458
same,area with substrate EVLYFQS,0.042
same,area with substrate EWLYFQS,0.0519
same,area with substrate EYLYFQS,0.0417
I84T,area with substrate EALYFQS,0.0852
same,area with substrate EDLYFQS,0.102
same,area with substrate EKLYFQS,0.0837
same,area with substrate EQLYFQS,0.101
F117Q,area with substrate EALYFQS,0.12
same,area with substrate ECLYFQS,0.18
same,area with substrate EHLYFQS,0.103
same,area with substrate EILYFQS,0.0969
same,area with substrate EMLYFQS,0.136
same,area with substrate EPLYFQS,0.103
same,area with substrate EQLYFQS,0.158
same,area with substrate ERLYFQS,0.142
same,area with substrate ESLYFQS,0.15
same,area with substrate ETLYFQS,0.113
same,area with substrate EVLYFQS,0.0768
same,area with substrate EWLYFQS,0.126
same,area with substrate EYLYFQS,0.116
E107I,area with substrate EALYFQS,0.0049
same,area with substrate EDLYFQS,0.0914
same,area with substrate EELYFQS,0.125
same,area with substrate EHLYFQS,0.083
same,area with substrate EILYFQS,0.0882
same,area with substrate EKLYFQS,0.0996
same,area with substrate EMLYFQS,0.0789
same,area with substrate EQLYFQS,0.103
same,area with substrate ESLYFQS,0.0888
same,area with substrate EVLYFQS,0.0948
S130M,area with substrate EALYFQS,0.0928
same,area with substrate EGLYFQS,0.0791
same,area with substrate EHLYFQS,0.0978
same,area with substrate EILYFQS,0.0945
same,area with substrate ELLYFQS,0.0841
same,area with substrate EMLYFQS,0.131
same,area with substrate ESLYFQS,0.083
same,area with substrate ETLYFQS,0.101
same,area with substrate EVLYFQS,0.0847
S130K,area with substrate EALYFQS,0.11
same,area with substrate EELYFQS,0.121
same,area with substrate EFLYFQS,0.088
same,area with substrate EGLYFQS,0.0792
same,area with substrate EILYFQS,0.0784
same,area with substrate EKLYFQS,0.0946
same,area with substrate EPLYFQS,0.109
same,area with substrate ESLYFQS,0.0875
same,area with substrate EVLYFQS,0.0823
same,area with substrate EYLYFQS,0.0777
D91R,area with substrate EALYFQS,0.165
same,area with substrate EDLYFQS,0.147
same,area with substrate ELLYFQS,0.0904
same,area with substrate EMLYFQS,0.122
same,area with substrate EPLYFQS,0.126
same,area with substrate ESLYFQS,0.109
same,area with substrate EWLYFQS,0.0889
D91K,area with substrate EALYFQS,0.107
same,area with substrate EHLYFQS,0.0586
same,area with substrate EILYFQS,0.114
same,area with substrate EQLYFQS,0.103
same,area with substrate ERLYFQS,0.0951
same,area with substrate ESLYFQS,0.0884
D91N,area with substrate EALYFQS,0.133
same,area with substrate EGLYFQS,0.139
same,area with substrate EHLYFQS,0.0915
same,area with substrate EKLYFQS,0.153
same,area with substrate EMLYFQS,0.14
same,area with substrate ESLYFQS,0.0968
same,area with substrate ETLYFQS,0.149
same,area with substrate EVLYFQS,0.226
D82A,area with substrate EALYFQS,0.051
same,area with substrate EDLYFQS,0.0488
same,area with substrate EELYFQS,0.0485
same,area with substrate EFLYFQS,0.0679
same,area with substrate ESLYFQS,0.0577
same,area with substrate ETLYFQS,0.0546
same,area with substrate EVLYFQS,0.0534
I110L,area with substrate EALYFQS,0.13
same,area with substrate EELYFQS,0.139
same,area with substrate EHLYFQS,0.168
same,area with substrate EILYFQS,0.107
same,area with substrate EKLYFQS,0.104
same,area with substrate ERLYFQS,0.126
same,area with substrate ESLYFQS,0.105
same,area with substrate EVLYFQS,0.111
same,area with substrate EWLYFQS,0.13
same,area with substrate EYLYFQS,0.121
M125P,area with substrate EALYFQS,0.152
same,area with substrate ECLYFQS,0.11
same,area with substrate EPLYFQS,0.123
same,area with substrate ESLYFQS,0.0993
same,area with substrate EVLYFQS,0.0635
M125G,area with substrate EALYFQS,0.111
same,area with substrate EELYFQS,0.138
same,area with substrate EHLYFQS,0.154
same,area with substrate EILYFQS,0.0941
same,area with substrate EKLYFQS,0.143
same,area with substrate EQLYFQS,0.113
same,area with substrate ERLYFQS,0.12
same,area with substrate ESLYFQS,0.102
same,area with substrate EWLYFQS,0.114
M125C,area with substrate EALYFQS,0.0963
same,area with substrate ECLYFQS,0.0832
same,area with substrate EGLYFQS,0.0611
same,area with substrate EILYFQS,0.0984
same,area with substrate ELLYFQS,0.0892
same,area with substrate EPLYFQS,0.0678
same,area with substrate EQLYFQS,0.0911
same,area with substrate ERLYFQS,0.111
same,area with substrate ESLYFQS,0.1
same,area with substrate ETLYFQS,0.12
same,area with substrate EVLYFQS,0.0913
